According to article PMC6919601, “Identification of Plasmodium dipeptidyl aminopeptidase allosteric inhibitors by high throughput screening” (PLoS ONE, 2019):
Hit rate of the full screen: of about 110,000 compounds, about 230 (0.21%) showed an effect of 50% or more. The list shows a part of the results.

biological target: DPAP1 (Plasmodium falciparum, UniProt Q8IIJ9); assay: primary screen, percent inhibition; read by cleavage of a fluorogenic dipeptide substrate; higher = more effect of the substance; set-up: species or system P. falciparum D10 trophozoite lysates; single well
Sequence (Q8IIJ9 whole entry, looked up): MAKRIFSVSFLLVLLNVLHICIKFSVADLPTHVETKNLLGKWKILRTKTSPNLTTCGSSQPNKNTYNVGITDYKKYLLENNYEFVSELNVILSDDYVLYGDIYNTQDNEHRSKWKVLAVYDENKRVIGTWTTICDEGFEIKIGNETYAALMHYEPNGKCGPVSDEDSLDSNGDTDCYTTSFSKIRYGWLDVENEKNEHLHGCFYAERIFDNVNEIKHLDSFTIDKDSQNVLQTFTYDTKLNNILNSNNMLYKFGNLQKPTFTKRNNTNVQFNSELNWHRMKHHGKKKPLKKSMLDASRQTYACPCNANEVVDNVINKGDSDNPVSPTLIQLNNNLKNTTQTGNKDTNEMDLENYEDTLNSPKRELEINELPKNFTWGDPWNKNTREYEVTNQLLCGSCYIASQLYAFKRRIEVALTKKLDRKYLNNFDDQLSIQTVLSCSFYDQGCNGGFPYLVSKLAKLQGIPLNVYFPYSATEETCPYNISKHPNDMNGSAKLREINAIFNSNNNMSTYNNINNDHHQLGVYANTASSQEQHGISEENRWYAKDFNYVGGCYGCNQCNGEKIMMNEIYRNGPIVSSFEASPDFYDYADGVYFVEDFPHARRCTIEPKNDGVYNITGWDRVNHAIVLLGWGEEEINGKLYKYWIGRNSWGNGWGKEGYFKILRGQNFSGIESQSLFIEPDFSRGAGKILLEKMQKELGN
Protocol: HTS was performed in black 384-well plates. The first and last two columns of each plate contained our negative (DMSO) and positive (10 μM JCP410) controls, and the 20 central columns the test compounds at 10 μM. Compounds were first diluted 50-fold into assay buffer (50 mM sodium acetate, 5 mM MgCl2, 10 mM β-mercaptoethanol, and 0.1% CHAPS, pH 5.5) from a 10 mM DMSO stock plates. One microliter of this 200 μM intermediate stock plate was dispensed into the assay plate. […] After 30 min, the reaction was quenched with 20 μL of 0.5 M acetic acid, and the fluorescent intensity measured at 523 nm (λex = 492 nm) using an Analyst HT multimode plate reader (Molecular Devices).
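Further: 30 min substrate incubation versus DMSO and 10 µM JCP410 controls.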

Row | SMILES | % Inhibition @ 10 uM [%]
1 | C=CCc1cc(/C=C2/C(=N)N3OC(C)=CC3=NC2=O)cc(OC)c1OC | -5.1
2 | CCCC1C(=O)NC(=S)N(c2ccccc2)C1=O (centres unmarked) | 1.42
3 | COc1ccc(NC(=O)/C=C/c2ccc(C(C)C)cc2)cc1 | 5.08
4 | O=C(Nc1nc2ccccc2[nH]1)c1ccc(-c2ccccc2)cc1 | 1.84
5 | CC(C)OCCCn1c(=O)c2ccccc2n2c(-c3ccccc3O)nnc12 | -3.51
6 | O=C(Nc1nccs1)C(NS(=O)(=O)c1cccc2nsnc12)c1ccccc1 (centres unmarked) | 0.317
7 | Cc1nnc(N2CCC(C(=O)NC3CCCC3)CC2)c2nn(-c3ccc(Cl)cc3)c(C)c12 | -4.18
8 | COC(=O)c1sc2nc(C)ccc2c1N | -2
9 | CCCOc1ccc(NCC(=O)Nc2ccc(C)cc2C)cc1 | -7.08
10 | CC1(C)CC(=O)C2=C(C1)c1c(ccc3ccccc13)NC2c1cccnc1 (centres unmarked) | -1.97
11 | CCN(CC)CCNc1cc(C)nc2c(-c3ccc(Cl)cc3)c(C)nn12 | -6.4
12 | COc1ccc(-c2c(C(=O)O)oc(=O)c3ccccc23)cc1 | 1.02
13 | CN(C1CCCCC1)C1CCCCC1NS(=O)(=O)c1ccc(Cl)cc1 (centres unmarked) | 1
14 | Cc1sc(NC(=O)c2ccc(Cl)cc2Cl)c(C#N)c1C | 0.983
15 | O=C(c1ccc(F)cc1)N1CCN(Cc2cccc(Oc3ccccc3)c2)CC1 | -5.28
16 | CC1CN(Cc2ccc(Cl)cc2)CC(C)O1 (centres unmarked) | 0.815
17 | O=C(O)c1ncc(-c2ccccc2)cn1 | 1.9
18 | CCOC(=O)N1CCN(C(=O)C2CCN(S(=O)(=O)c3cccc4nsnc34)CC2)CC1 | -3.35
19 | CC(C)(O)C#Cc1ccc(C(=O)NCCc2ccc(S(N)(=O)=O)cc2)cc1 | 13.3
20 | O=C(CN1CCCN(Cc2ccc(F)cc2Cl)C1=O)NCc1cccnc1 | -4.53
21 | CC(=O)Nc1ccc(S(=O)(=O)N2CCN(C(=O)N3CCOCC3)CC2)cc1 | -1.17
22 | Cc1ccc(CNC(=O)C(NS(=O)(=O)c2ccc3nc(C)sc3c2)C(C)C)cc1 (centres unmarked) | 4.74

Row | SMILES | % Inhibition @ 10 uM [%]
23 | FC(F)Oc1ccc(C2CC(c3ccc(Cl)cc3)Nc3nnnn32)cc1 (centres unmarked) | -5.19
24 | Cc1ccc(C(C)C)c(OCC(=O)Nc2ccccc2F)c1 | -3.19
25 | Cc1ccc(-n2cnc(N)c2C(=O)c2ccc(Br)cc2)cc1 | 2.45
26 | C[C@H](NC(=O)[C@H]1CCCN1C#N)C(=O)NCc1ccccc1 | -0.972
27 | CCOc1ccc(OCC)c(C2C(C#N)=C(N)SC(N)=C2C#N)c1 | 23.2
28 | Cc1ccc(C)c(S(=O)(=O)Nc2ccc3oc(=O)sc3c2)c1 | -4.59
29 | COc1ccc(N(C(C)=O)C2SC(=O)N(c3ccccc3)C2=O)cc1 (centres unmarked) | -9.66
30 | CCOC(=O)C1=C(CC)OC(N)=C(C#N)C1c1cccc(OC)c1 (centres unmarked) | -0.771
31 | Cc1ccc(-c2nc(CS(=O)(=O)CC(=O)NC(C)C34CC5CC(CC(C5)C3)C4)c(C)o2)cc1 (centres unmarked) | -0.138
32 | CCN(CC)CCCNC(=O)c1ccc(-n2c(C)cc3c2CCC(C)C3)cc1 (centres unmarked) | -0.0871
33 | COc1ccc(CN2CC(C(=O)NCCCN3CCOCC3)CC2=O)cc1 (centres unmarked) | 1.62
34 | O=S(=O)(NCc1ccc2c(c1)OCO2)c1ccc(-c2cc(C(F)(F)F)no2)s1 | 2.91
35 | CCOc1ccc(NC(=O)c2ccc(N(C)S(C)(=O)=O)cc2)cc1 | 5.77
36 | COc1ccc(C(=O)N2CCN(Cc3ccccc3C)CC2)cc1OC | -13.5
37 | Cn1c(=O)c2c(nc(CN3CCN(CCO)CC3)n2Cc2c(F)cccc2Cl)n(C)c1=O | -4.14
38 | CCOc1ccc(S(=O)(=O)N(CC(=O)N2CCCC2)c2ccccc2)cc1 | 0.408
39 | Cn1c(C=O)c(Cl)c2ccccc21 | 4.24
40 | Clc1cccc(Cl)c1CN1CCN(Cc2ccccc2)CC1 | -0.446
41 | O=[N+]([O-])c1cc(C(F)(F)F)ccc1N1CCc2ccccc2C1 | -3.8
42 | CC(NC(=O)C(C)n1c2ccccc2c2cnnc(O)c21)c1ccccc1 (centres unmarked) | 1.38
43 | Cc1cccc(NC(=O)c2cccc(N)c2)c1 | 4.44
44 | O=C(Nc1cc(Cl)ccc1Cl)c1ccc(Br)cc1 | -3.71

Row | SMILES | % Inhibition @ 10 uM [%]
45 | CCOc1ccccc1N1CCN(S(=O)(=O)c2ccc(OC)cc2)CC1 | -5.69
46 | COc1ccccc1/C=C/C(=O)c1c(C)cc(C)nc1O | 0.317
47 | COc1ccc2c(=O)c(Oc3ccc(Cl)cc3)coc2c1 | 0.161
48 | O=C(NCc1ccccc1)c1ccc2nc(N3CCN(Cc4ccc(Cl)cc4)CC3)ccc2n1 | -2.52
49 | O=C(NCCCc1nc2ccccc2n1Cc1ccccc1)c1ccccc1 | -4.07
50 | CC(C)(C)C1CCC(OC(=O)CCC(=O)Nc2ncncn2)CC1 (centres unmarked) | -3.58
51 | COc1cc(NC(=O)c2ccccc2)c(Cl)cc1NC(C)=O | -4.31
52 | COc1cc(CCC(=O)Nc2nccs2)on1 | 9.89
53 | CCN(CCN(C)C)C1CCN(CCc2ccccc2)CC1 | 1.57
54 | CCn1c2ccccc2c2cc(CN3CCCCCCC3)ccc21 | -0.828
55 | CCOC(=O)c1cnc2ccc(C)cc2c1NCCN1CCOCC1 | -3.06
56 | CCOc1ccccc1NC(=O)CC(C)C | 0.583
57 | Cc1nc2ccn(Cc3cccs3)c(=O)c2cc1C(=O)N1CCCC1 | -10.2
58 | CCC1CCCCN1CCCNC(=O)Cn1ncc2c3ccccc3n(Cc3ccccc3)c2c1=O (centres unmarked) | -1.58
59 | CCOc1ccc(C2C3=C(O)CCCC3=Nc3nc(-c4ccc(OC)cc4)nn32)cc1OC (centres unmarked) | -1.47
60 | Cc1ccc(-c2csc(/C(C#N)=C\c3cccc(Cl)c3)n2)cc1 | 5.29
61 | CN(C)c1ccc(Nc2cccc3nonc23)cc1 | 5.87
62 | CSC1=NC(C)(C)CCC12C=CC(=O)C=C2 | 1.74
63 | CC(C)CNC(=O)COCc1cc(-c2ccc3c(c2)OCO3)on1 | 1.6
64 | Cc1cc(Oc2ccc(C#N)cc2)nc(-c2ccccc2O)n1 | -1.97
65 | Nc1ncc(Br)cc1S(=O)(=O)NCCC(=O)N1CCN(c2ncccn2)CC1 | 1.93
